Results are given in words; binding and its absence hold for the method and conditions named. In cells and extracts the contact can be indirect. Some binding calls cover weakened binding; strength is not graded here. For some assays here: Tags and fused reporters may be left off the sequences shown.
T1: RILPL1 lacking the last eight amino acids (UniProt Q5EBL4)
T1 sequence: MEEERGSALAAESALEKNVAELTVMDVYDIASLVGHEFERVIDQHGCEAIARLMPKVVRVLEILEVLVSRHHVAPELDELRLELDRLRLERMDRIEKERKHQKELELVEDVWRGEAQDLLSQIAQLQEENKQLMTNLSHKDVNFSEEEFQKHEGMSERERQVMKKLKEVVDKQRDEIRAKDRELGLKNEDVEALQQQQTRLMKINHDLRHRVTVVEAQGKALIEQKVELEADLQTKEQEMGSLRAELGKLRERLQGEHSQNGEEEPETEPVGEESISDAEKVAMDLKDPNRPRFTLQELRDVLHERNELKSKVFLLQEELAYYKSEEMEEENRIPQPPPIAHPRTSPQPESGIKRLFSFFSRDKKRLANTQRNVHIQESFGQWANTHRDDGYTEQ

Amino acid sequences for entries named in this document (tags omitted). A change or cut given only in a name is not applied to a line headed by its entry. Chains listed by the source or under a name are the forms on record and can include a tag or linker. Residues count along the entry.
TMEM55B residues 80 to 160 (Q86T03, residues 73-153): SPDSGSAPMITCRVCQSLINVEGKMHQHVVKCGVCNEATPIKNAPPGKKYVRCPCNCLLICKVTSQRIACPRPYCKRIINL
Halo-TMEM55B (Q86T03-2, form named): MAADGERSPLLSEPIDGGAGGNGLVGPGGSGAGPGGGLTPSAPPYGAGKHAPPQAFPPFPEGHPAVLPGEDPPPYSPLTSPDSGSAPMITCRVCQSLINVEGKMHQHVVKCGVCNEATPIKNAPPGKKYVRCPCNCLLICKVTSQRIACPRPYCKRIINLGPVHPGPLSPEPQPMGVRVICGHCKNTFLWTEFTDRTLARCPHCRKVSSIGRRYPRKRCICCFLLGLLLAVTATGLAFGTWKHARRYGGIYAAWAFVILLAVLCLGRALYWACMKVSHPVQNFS
TMEM55B R151E (Q86T03-2, form named): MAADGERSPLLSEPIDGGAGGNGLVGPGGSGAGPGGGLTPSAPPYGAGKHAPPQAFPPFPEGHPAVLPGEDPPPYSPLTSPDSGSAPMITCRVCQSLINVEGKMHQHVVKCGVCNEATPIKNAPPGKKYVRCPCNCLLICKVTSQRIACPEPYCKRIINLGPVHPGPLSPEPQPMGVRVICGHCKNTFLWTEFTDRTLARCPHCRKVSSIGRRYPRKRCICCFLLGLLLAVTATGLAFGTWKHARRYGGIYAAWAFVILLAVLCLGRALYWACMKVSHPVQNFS
TMEM55B K141E (Q86T03-2, form named): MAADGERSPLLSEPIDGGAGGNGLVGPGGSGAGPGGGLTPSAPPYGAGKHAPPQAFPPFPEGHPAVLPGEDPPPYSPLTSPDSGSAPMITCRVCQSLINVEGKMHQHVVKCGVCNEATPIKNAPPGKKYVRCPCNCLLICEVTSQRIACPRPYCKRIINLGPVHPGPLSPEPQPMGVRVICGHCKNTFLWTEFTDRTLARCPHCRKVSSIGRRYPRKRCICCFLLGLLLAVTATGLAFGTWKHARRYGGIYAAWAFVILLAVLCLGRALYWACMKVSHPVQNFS
UniProt Q8N4L2: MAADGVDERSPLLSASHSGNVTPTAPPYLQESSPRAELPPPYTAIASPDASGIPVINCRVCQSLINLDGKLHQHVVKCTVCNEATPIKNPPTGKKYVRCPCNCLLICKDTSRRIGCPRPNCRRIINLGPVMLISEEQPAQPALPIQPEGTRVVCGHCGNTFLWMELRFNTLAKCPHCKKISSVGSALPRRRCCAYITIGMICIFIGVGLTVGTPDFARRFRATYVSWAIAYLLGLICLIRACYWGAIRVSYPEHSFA

T2: RILPL1-GFP WT (UniProt Q5EBL4)
T2 sequence: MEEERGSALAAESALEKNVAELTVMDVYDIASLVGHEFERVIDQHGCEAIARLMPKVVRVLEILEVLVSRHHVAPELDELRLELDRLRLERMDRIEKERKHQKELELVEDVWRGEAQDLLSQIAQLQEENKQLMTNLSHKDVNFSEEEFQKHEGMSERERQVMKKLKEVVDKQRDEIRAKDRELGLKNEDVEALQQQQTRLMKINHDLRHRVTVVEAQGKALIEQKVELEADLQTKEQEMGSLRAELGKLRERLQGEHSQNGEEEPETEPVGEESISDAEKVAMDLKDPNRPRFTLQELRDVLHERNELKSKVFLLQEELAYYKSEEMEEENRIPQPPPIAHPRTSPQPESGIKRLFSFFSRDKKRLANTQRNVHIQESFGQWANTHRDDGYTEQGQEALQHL


Experiments:
[1] = biological target: T1, RILPL1 lacking the last eight amino acids; assay: co-IP; GFP-Trap agarose IP of GFP-tagged RILPL1 from lysates of transiently transfected HEK293 cells (with Flag-LRRK2 Y1699C and HA-Rab8A Q67L as indicated), 1 to 2 hours; washed with 50 mM tris-HCl pH 7.5, 150 mM NaCl; quantitative immunoblot
RILPL1-GFP WT = biological target: T2, RILPL1-GFP WT; assay: as above
Halo-TMEM55B [2] = biological target: Halo-TMEM55B (UniProt Q86T03); assay: co-IP; fig. S11B; 'overexpression studies'; legend not shown; bait and tags not told
TMEM55A = TMEM55A (UniProt Q8N4L2); assay: as above
TMEM55B R151E = TMEM55B R151E (UniProt Q86T03); assay: co-IP; HaloLink Resin IP of Halo-TMEM55B (full-length, truncated or point mutants) from lysates of transiently transfected HEK293 cells, 1 to 2 hours; washed with 50 mM tris-HCl pH 7.5, 150 mM NaCl; quantitative immunoblot
Halo-TMEM55B [3] = biological target: Halo-TMEM55B (UniProt Q86T03); assay: as above
[4] = biological target: TMEM55B residues 80 to 160 (UniProt Q86T03); assay: as above
TMEM55B K141E = TMEM55B K141E (UniProt Q86T03); assay: as above

binding [1]	binding (RILPL1-GFP WT)	binding (Halo-TMEM55B [2])	binding (TMEM55A)	binding (TMEM55B R151E)	binding (Halo-TMEM55B [3])	binding [4]	binding (TMEM55B K141E)	Molecule
no binding	binds	–	–	–	–	–	–	endogenous TMEM55B (from UniProt Q86T03-2 1-284)
–	–	binds	binds	no binding	binds	binds	binds	RILPL1 (found with overexpressed TMEM55B or TMEM55A) (protein, UniProt Q5EBL4 1-403) MEEERGSALAAESALEKNVAELTVMDVYDIASLVGHEFERVIDQHGCEAIARLMPKVVRVLEILEVLVSRHHVAPELDELRLELDRLRLERMDRIEKERKHQKELELVEDVWRGEAQDLLSQIAQLQEENKQLMTNLSHKDVNFSEEEFQKHEGMSERERQVMKKLKEVVDKQRDEIRAKDRELGLKNEDVEALQQQQTRLMKINHDLRHRVTVVEAQGKALIEQKVELEADLQTKEQEMGSLRAELGKLRERLQGEHSQNGEEEPETEPVGEESISDAEKVAMDLKDPNRPRFTLQELRDVLHERNELKSKVFLLQEELAYYKSEEMEEENRIPQPPPIAHPRTSPQPESGIKRLFSFFSRDKKRLANTQRNVHIQESFGQWANTHRDDGYTEQGQEALQHL

From PMC10848721
